Reference: PubChem BioAssay AID485344 (National Center for Advancing Translational Sciences (NCATS), 2010)
In all, about 340,000 compounds went through this assay and about 6,900 (2%) were called active. Rule as the data show it: active = inhibition above about 30%; inactive = below that, where a call was filed. The list shows a part of the results, in another mix than the full data. Where no call is shown, the source filed none.

These compounds were tested against D(2) dopamine receptor (Homo sapiens) (UniProt P14416) (assay: HTS Assay for Allosteric Antagonists of the Human D2 Dopamine Receptor: Primary Screen for Antagonists). Conditions: HEK293 TREx D2 cells, calcium flux, dopamine EC80; at 10 µM; stronger effect = higher value.
How it was run: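 Compounds are added to dye-loaded, induced HEK293 T-REx cells coupled to calcium release via D2; after a 3 min kinetic read an EC80 dopamine stimulus is given and fluorescence is recorded for 3 more min.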
Also: 0% is about no effect.

Sequence of UniProt P14416 (P14416 whole entry, looked up): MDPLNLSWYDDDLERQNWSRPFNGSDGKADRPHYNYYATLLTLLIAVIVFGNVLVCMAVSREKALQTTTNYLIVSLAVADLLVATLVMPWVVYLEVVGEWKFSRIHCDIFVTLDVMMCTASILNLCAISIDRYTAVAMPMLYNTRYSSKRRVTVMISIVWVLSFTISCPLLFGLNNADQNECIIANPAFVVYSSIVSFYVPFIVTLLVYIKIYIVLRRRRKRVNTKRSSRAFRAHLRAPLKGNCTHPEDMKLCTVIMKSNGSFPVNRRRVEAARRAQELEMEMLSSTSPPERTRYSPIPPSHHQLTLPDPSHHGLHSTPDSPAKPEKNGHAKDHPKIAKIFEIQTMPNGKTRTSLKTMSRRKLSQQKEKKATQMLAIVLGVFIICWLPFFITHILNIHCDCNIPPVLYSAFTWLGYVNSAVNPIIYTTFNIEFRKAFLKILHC

Structure (SMILES)	inhibition
CCc1ccc(CCC(=O)Nc2ccc(Cl)cc2)o1	active: 41.5%
O=C(Cn1c(=O)nc(-c2ccccc2)c2ccccc21)NCc1ccc(F)cc1	-4.85%
C#CCNC(=O)C1=C[C@@H](c2ccc(C#C)cc2)[C@H](CCCO)[C@@H](OCC)O1	active: 31.9%
CCc1ccc(NCc2cc3cc(OC)c(OC)cc3n(CC(=O)Nc3cc(C)ccc3C)c2=O)cc1	-3.94%
CN(C(=O)CN1C(=O)CCSc2ccc(S(=O)(=O)N3CCCC3)cc21)c1ccccc1	-9.1%
CCC(C)OC(=O)/C(C#N)=C\c1ccc(-c2cccc(C(F)(F)F)c2)o1 (configuration not stated)	12.9%
COc1ccc(C(C)n2c(C)c3c(C)nnc(C)c3c2C)cc1 (configuration not stated)	-4.52%
Cc1cccc(C)c1Nc1nc2ccccc2nc1NS(=O)(=O)c1ccccc1	10.9%
COc1ccc(S(=O)(=O)N(CC(=O)NCc2ccccc2)c2ccc(C)cc2)cc1OC	10.4%
O=S(=O)(c1ccc2c(c1)CCN2)N1CCCCCC1	-5.44%
O=C(CCN1CCc2ccccc2C1)Nc1ccccc1	active: 57.3%
Cc1ccc2c(c1)c1c(c(=O)n(Cc3ccccc3)c(=O)n1CC(=O)NCc1ccccc1Cl)n2C	6.23%
CSCCC(NC(=O)c1ccc(Cl)cc1Cl)C(=O)NNC(=O)c1csc(N2CCOCC2)n1 (configuration not stated)	active: 33.7%
CCOC(=O)C(Cc1c[nH]c2ccccc12)NC(=O)COc1ccc(Cl)c(C)c1 (configuration not stated)	1.14%
COc1cccc(CNC(=O)C2CCC(CNS(=O)(=O)c3ccc(Br)s3)CC2)c1 (configuration not stated)	-0.65%
CCOc1nc(NC(=O)NS(=O)(=O)Oc2ccccc2)nc(-c2ccccc2)n1	1.26%
CCc1ccc(Sc2cc(C(=O)NC(C)CC)c3ccccc3n2)cc1 (configuration not stated)	19.5%
COc1cccc(NC(=O)c2cnn(-c3ccccc3)c2-n2cccc2)c1	10.8%
COc1ccccc1-n1c(/C=C/c2c(C)n(C)c3ccccc23)nc2ccccc2c1=O	-0.84%
COc1ccc(-c2noc(CSc3nnc(-c4ccncc4)n3-c3ccc(C)cc3)n2)cc1	-22.5%
O=C(CCN1CCN(c2ccccc2F)CC1)Nc1ccc(F)cc1	active: 87.5%
N#Cc1c[nH]n2c(NC3CCCC3)c(-c3cccc(Cl)c3)nc12	5.9%
Cc1ccc(N(CC(=O)Nc2ccc(C)c(F)c2)S(=O)(=O)c2c(C)n[nH]c2C)cc1	-1.64%
CCCCOc1ccc(CN2CCCCC2)cc1	active: 52.1%
CCOc1cc(C(=O)N2CCc3c([nH]c4ccccc34)C2c2ccccc2)cc(OCC)c1OCC (configuration not stated)	9.46%
COc1ccc(C)cc1NC(=O)Cn1c(=O)ccc2cc(S(=O)(=O)N3CCCC3)ccc21	18.2%
CCOC(=O)c1sc2ncn(CC(=O)Nc3ccc(C)cc3Br)c(=O)c2c1C	1.57%
